Data published in PubChem BioAssay AID463173 (ICCB-Longwood Screening Facility, Harvard Medical School, 2010).
The whole screen tested about 52,000 compounds, of which about 4,300 (8.3%) were called active. Cut-off read from the data, not from the text of the source: active = survival mostly below about 52% (no sharp cut-off); inactive = mostly above about 56%. The list shows a part of the results.

tested on: DeltatarO mutant; experiment: growth inhibition of S. aureus wild type versus tarO mutant, primary screen, teichoic acid synthesis inhibitors, RN4220, OD600 (AID 463173); details: OD600, 18 h, stronger effect = lower value, screened at 18.75 µg/mL (by protocol)

SMILES	survival
CCCOc1ccc(C(=O)Nc2nonc2-c2ccc(OCC)cc2)cc1	inactive: 70%
COc1ccc(CNC(=O)C2=C(C)C(=O)OC23CCCCC3)cc1OC	inactive: 99%
O=C1CCCC(O)=C1C=NCc1cccnc1	inactive: 88%
Cc1cc(C)cc(NC(=O)CSc2nc3c([nH]c4ccccc43)c(=O)n2-c2ccc(F)cc2)c1	inactive: 112%
CN(CCc1ccccn1)Cc1ccccc1	inactive: 101%
CCOC(=O)C1CCN(CC(=O)N2C(C)CCCC2C)CC1 (stereo not drawn)	inactive: 95%
CCOc1cc(C#N)c(NC(=O)c2ccc(OC)c(S(=O)(=O)N3CCN(c4ccccc4)CC3)c2)cc1OCC	inactive: 98%
N#CC1=C2SCN(C3CCCCC3)CN2C(=O)CC1c1ccc(Br)cc1 (stereo not drawn)	inactive: 97%
CCN(CC)C(=O)c1cc(-c2ccccc2)on1	inactive: 101%
CCCOc1ccc(CNC(=O)c2oc3ccc4c(c3c2C)C(=O)CC(C)(CC)O4)cc1 (stereo not drawn)	inactive: 68%
CCCc1ccc(S(=O)(=O)N2CCC(c3nnnn3-c3ccc(OC)cc3)CC2)cc1	inactive: 70%
CC(=O)Nc1ccc(/C=C2/SC(=Nc3ccccc3)NC2=O)cc1	inactive: 99%
O=C(C1CCN(S(=O)(=O)c2ccccc2)CC1)N1CCCCC1	inactive: 81%
Cc1oc2cc3oc(=O)c(CC(=O)N4CCCCC4)c(C)c3cc2c1C	inactive: 73%
COc1cccc(CNc2ncnc3onc(C)c23)c1	inactive: 125%
COc1ccc(N(CC(=O)N2CCc3ccccc3C2)S(=O)(=O)c2ccc(C)cc2)cc1Cl	inactive: 57%
O=C(Cn1c(=O)n(Cc2ccco2)c(=O)c2oc3ccccc3c21)Nc1ccc(F)c(Cl)c1	active: 44%
CNc1ccc(-c2nc(-c3ccccc3C)no2)cc1[N+](=O)[O-]	inactive: 83%
COc1ccc(C2=C(C(C)=O)Sc3nnc(-c4ccc(Cl)cc4)n3N2C(C)=O)cc1OC	inactive: 101%
c1ccc(-c2cc3ncc4c(n3n2)-c2ccccc2OC4)cc1	inactive: 77%
CN1CCN(CCCNC(=O)c2cnn(-c3ccc(F)cc3)c2-n2cccc2)CC1	inactive: 83%
O=C(CSc1nc(-c2ccco2)cc(C(F)(F)F)n1)N1CCCC1	inactive: 79%
O=C(Nc1c(C(=O)N2CCN(c3ccccc3F)CC2)oc2ccccc12)c1ccco1	inactive: 69%
CSc1nc(-c2ccccc2Cl)nc2c1Cc1c(CO)cnc(C)c1O2	inactive: 114%

SMILES	survival
COc1ccc(CNC(=O)Cn2c(=O)c3cccn3c3ccccc32)cc1	inactive: 47%
O=C1C2=C(Nc3ncnn3C2c2ccccc2)c2ccccc21 (stereo not drawn)	inactive: 80%
CCc1nnc2c(N3CCN(c4cccc(C(F)(F)F)c4)CC3)nc3ccccc3n12	inactive: 108%
Cc1cc(C)cc(C(=O)n2nc(C)c(S(=O)(=O)N3CCCCCC3)c2C)c1	inactive: 86%
O=C(Nc1ccc(Cl)cc1Cl)c1cc(S(=O)(=O)N2CCCCCC2)ccc1F	inactive: 76%
O=C1CC(c2cc(F)cc(F)c2)c2cc3c(cc2N1)OCO3 (stereo not drawn)	inactive: 97%
Cc1c(C(=O)N2CCN(c3ccc(F)cc3)CC2)sc2nc3n(c(=O)c12)CCC3	inactive: 72%
CCCCS(=O)(=O)c1oc(-c2cccs2)nc1S(=O)(=O)c1ccc(F)cc1	inactive: 56%
CCN(C(=O)CSc1nnc(Cn2nnc3ccccc32)o1)c1nc(-c2ccccc2)cs1	inactive: 80%
O=C(Cn1ccn(-c2ccc(F)cc2)c(=O)c1=O)Nc1ccccc1C(F)(F)F	inactive: 50%
CC(C)(C)OC(=O)N1CC=C2C(C#N)=C(N)C(C#N)(C#N)C(c3ccc4c(c3)OCO4)C2C1 (stereo not drawn)	active: 35%
CCCCc1nn2c(=O)cc(COC(=O)c3ccccc3NC(=O)c3cccs3)nc2s1	inactive: 87%
CN(C)c1nc(Cl)nc(NCCCC(=O)O)n1	inactive: 77%
CCCOc1ccc(NC(=O)CC2C(=O)N(c3ccc(C)cc3)C(=O)N2CCc2ccncc2)cc1 (stereo not drawn)	inactive: 98%
CC(=O)N1CCc2cc(S(=O)(=O)NC(CC(C)C)C(=O)NCc3ccccc3Cl)ccc21 (stereo not drawn)	inactive: 76%
Cc1c(NC(=O)c2cc(-c3ccccc3O)on2)c(=O)n(-c2ccccc2)n1C	active: 51%
O=c1c(NCc2ccccc2Cl)nccn1-c1ccccc1	active: 17%
CCOC(=O)CCC(=O)Nc1nnc2n1CCS2	inactive: 66%
COc1ccc(CNC(=O)CCc2c(C)c3cc4c(C)c(C)oc4cc3oc2=O)cc1	inactive: 90%
Cc1ccc(C(=O)Nc2nnc(S(=O)(=O)N3CCCCCC3)s2)cc1	inactive: 79%
CC(=O)Nc1ccc(-c2nnc3n(Cc4ccc(C)cc4)c(=O)c4ccccc4n23)cc1	inactive: 107%
CC(=O)NC1Sc2ccccc2N=C1c1ccccc1 (stereo not drawn)	inactive: 90%
CCC(C)Nc1nc(NC)nc(NC(C)CC)n1 (stereo not drawn)	inactive: 93%
CCCCCOc1ccc(Cn2c(=O)oc3ccc(C)cc32)cc1OC	active: 4%

SMILES	survival
CCC(=O)N1CCc2cc(Br)cc(S(=O)(=O)N3CCC(C(=O)Nc4ccccc4F)CC3)c21	active: 43%
Cc1ccc(S(=O)(=O)Cn2nnnc2CN(Cc2ccco2)Cc2cccs2)cc1	inactive: 61%
Cc1ccc(C(=O)NCC(=O)OCc2cc(=O)n3ccsc3n2)cc1	inactive: 74%
CCc1ccc(NC(=O)CSc2ccc3nc(-c4ccc(OC)cc4)cn3n2)cc1	inactive: 91%
CC(C)Cn1c(C2CC(=O)N(c3ccccc3Cl)C2)nc2ccccc21 (stereo not drawn)	inactive: 101%
Cc1cccc(NC(=O)Cn2nnc(C(=O)NCc3ccco3)c2N)c1	inactive: 121%
Cc1oc(-c2ccc(C(=O)NCCN(C)C)cc2)nc1CS(=O)(=O)c1ccccc1	inactive: 96%
O=C(Cn1nc(-c2ccccc2)nc(Cc2ccccc2)c1=O)Nc1ccc(Cl)cc1	inactive: 88%
Cc1cccc(-n2c(N)cc(=O)nc2SCC(=O)Nc2ccc(F)cc2)c1C	inactive: 96%
CCOc1ccc(NC(=O)C2CCCN(c3cnccn3)C2)cc1 (stereo not drawn)	inactive: 86%
Cc1ccc(NC(=O)CN2C(=O)C(C)(C)Oc3ccc(C(=O)N4CCCC4)cc32)cc1	inactive: 68%
CCOc1ccc(Cl)cc1CNCCCSc1nnnn1C	inactive: 77%
CC(C)(C)C(=O)CSc1nnc(-c2ccccc2)o1	inactive: 85%
Clc1nc(Cl)nc(NNc2nc(Cl)nc(Cl)n2)n1	inactive: 75%
CCOC(=O)CNc1c(-c2ccc(OC)cc2)nc2ccc(Cl)cn12	inactive: 58%
CCN(CC)S(=O)(=O)c1ccc2c(c1)N(CC(=O)Nc1ccc(OC)cc1)C(=O)CS2	inactive: 78%
COc1nc(OC)nc(N2CCC(C(=O)NCC3CCCCC3)CC2)n1	inactive: 78%
CCCN(CCC)CCNC(=O)CN1C(=O)COc2ccc(S(=O)(=O)N3CCOCC3)cc21	inactive: 79%
Cc1cccc(OCC(=O)NCCc2nc3ccccc3[nH]2)c1C	inactive: 79%
O=C(NCc1ccccc1Cl)C1CCN(C(=O)N2CCOc3ccccc32)CC1	inactive: 83%
CCC(CC)C(=O)Nc1nnc(S(=O)(=O)N2CCc3ccccc32)s1	inactive: 73%
CCOc1ccc(-n2nc(CO)c(C(=O)NCc3ccccn3)n2)cc1	inactive: 53%
COC(=O)c1ccccc1NC(=O)c1cnn(-c2ccc(F)cc2)c1-n1cccc1	inactive: 95%
Cc1ccc(Nc2nc(C(=O)NCC3CCCO3)cs2)cc1 (stereo not drawn)	inactive: 95%

SMILES	survival
NCCCNC(=O)c1ccco1	inactive: 94%
Cc1ccc(CN(C(=O)COc2ccccc2[N+](=O)[O-])c2ccccn2)cc1	inactive: 46%
COc1ccc(C)cc1NC(=O)Nc1cc(C(=O)NCc2ccc(C)cc2)ccc1N1CCCC1	inactive: 82%
COc1ccc(-c2nc3sc(CCNC(=O)Cc4ccc(F)cc4)c(C)n3n2)cc1	inactive: 94%
Cc1sc(-c2cc3ccccc3oc2=O)nc1-c1ccc(Cl)c(Cl)c1	inactive: 115%
CCOc1ccc(CNCc2c(C(=O)O)c(C)n(Cc3ccc(C)cc3)c2C)cc1	inactive: 80%
Cc1nnc(N2CCCC(C(=O)NCCN(C)C)C2)c2nn(-c3ccccc3)c(C)c12 (stereo not drawn)	inactive: 88%
CCOc1ccccc1OCCCCn1c(-c2ccc(Cl)cc2)nc2ccccc2c1=O	inactive: 45%
COc1ccc(N2CCN(C(=O)C3CCN(S(=O)(=O)c4cccc5nonc45)CC3)CC2)cc1	inactive: 115%
CCN1CCN(CCCNC(=O)CS(=O)(=O)Cc2nc(-c3ccccc3C)oc2C)CC1	inactive: 78%
Cc1cc(C)cc(NC(=O)c2ccc3oc(=O)c(S(=O)(=O)c4ccc(F)cc4)cc3c2)c1	inactive: 90%
COc1ccc(NC(=O)Cn2c(=O)c3cccn3c3ccccc32)cc1Cl	active: 42%
COc1cccc2sc(NC(=O)c3ccc(S(=O)(=O)N4CCC(C)CC4)cc3)nc12	inactive: 95%
CCOC(=O)c1noc2ncnc(Nc3cc(Cl)c(OC)cc3OC)c12	inactive: 99%
CC(C)c1ccc(-c2noc(SCC(=O)N3CCCCC3C)n2)cc1 (stereo not drawn)	inactive: 87%
Cc1cc(=O)n(Cc2ccc(F)cc2Cl)c2c1c(C)nn2C	inactive: 60%
O=C(NCCCN1CCN(c2ccc(F)cc2)CC1)c1cc2c(Cl)nc3ccccc3c2s1	inactive: 91%
Cc1cccc(-c2nc(CCNC(=O)c3ccc(Br)o3)cs2)c1	inactive: 89%
CCc1ccccc1Nc1ccc(C(=O)O)cn1	inactive: 93%
CCC(Sc1nc(-c2ccccc2)[nH]c1S(=O)(=O)c1ccc(C)cc1)C(=O)O (stereo not drawn)	inactive: 80%
CC1CCC(N2CC(=O)N(CCC3=CCCCC3)C(c3ccc(F)cc3)C2=O)CC1 (stereo not drawn)	inactive: 83%
